# According to the supplement of paper PMC3334620:
# Whole data set: some 33,000 sequences, median “E-score (-0.5 to 0.5)” near -0.036, cut for the highest 2% near 0.37. The list shows a part of the results.
# Target: T1, Yer064c (UniProt P40041)
# T1 sequence: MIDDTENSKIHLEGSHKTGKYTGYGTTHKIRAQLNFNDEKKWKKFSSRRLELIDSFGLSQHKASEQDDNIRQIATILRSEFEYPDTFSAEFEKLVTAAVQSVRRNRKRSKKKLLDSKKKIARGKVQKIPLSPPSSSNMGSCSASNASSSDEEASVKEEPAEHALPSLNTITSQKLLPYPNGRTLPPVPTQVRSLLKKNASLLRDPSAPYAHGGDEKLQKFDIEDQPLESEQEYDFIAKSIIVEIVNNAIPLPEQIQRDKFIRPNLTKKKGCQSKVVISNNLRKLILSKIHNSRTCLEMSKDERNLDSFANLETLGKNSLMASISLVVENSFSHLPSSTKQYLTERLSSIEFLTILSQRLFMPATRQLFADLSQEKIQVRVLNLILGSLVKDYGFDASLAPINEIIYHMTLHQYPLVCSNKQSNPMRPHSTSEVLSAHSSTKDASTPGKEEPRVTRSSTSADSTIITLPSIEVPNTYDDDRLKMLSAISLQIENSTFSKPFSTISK
# Assay: PBM E-score (8-mer binding enrichment) (E-score (-0.5 to 0.5)); higher = stronger / more preferred TF binding; most listed sequences are background and not binding sites
# Details: protein concentration: 200 nM; construct: GST-full length
# Procedure, shortened: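 Full-length yeast transcription factors or their DNA-binding domains, GST-tagged and expressed with PURExpress, were applied at about 100-200 nM to universal all-10-mer Agilent arrays. These arrays had been made double-stranded by primer extension on fresh or once-stripped slides. Detection used fluorescent anti-GST, normalisation used masliner, and E-scores for ungapped eight-base words pooled with reverse complements came from the Universal PBM Analysis Suite.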
row,Sequence,PBM E-score
1,CTATTCCC,-0.179
2,ATTGGGAA,0.00164
3,GCGGCCCA,-0.19
4,GACGTTCA,-0.12
5,TGCTTTAA,0.0103
6,CATGTTCA,-0.244
7,AATCCTGA,0.175
8,CCGAGTGC,0.0704
9,CCCTTACA,-0.0568
10,CGTATACA,-0.0369
11,CACGAATC,0.359
12,ATTAGTAA,0.12
13,ATCGTTCG,0.0337
14,GAGCCCTA,-0.118
15,GTTCTTGA,-0.0575
16,CATCCATC,-0.0508
17,GCGTCGAC,0.1
18,AGCTGTCA,-0.0221
19,AACGGCTC,0.0682
20,CTCCACTC,-0.18
21,CGCCTTAG,-0.29
22,CAGAAACC,-0.0269
23,CACAGGGA,-0.166
24,CGTTCGGA,-0.0482
25,AACGCCCA,-0.237

row,Sequence,PBM E-score
1,CAAGGCTG,-0.116
2,GGCAGTCA,0.445
3,CATTCACC,-0.166
4,CGTGCGTC,-0.13
5,CCTAAAAG,0.0342
6,CAGGAAAG,-0.0583
7,AACGTACA,-0.132
8,GGTAACTA,0.0844
9,CGGCCGGC,-0.134
10,ACTGTGGC,-0.0765
11,ACGCGTGA,0.213
12,CGTTGATC,0.0563
13,GAGGAGCC,0.00368
14,CCTAGCCC,-0.253
15,AAAGATGT,-0.14
16,CACAGGCA,-0.0869
17,AACGGAGA,-0.142
18,ATATCGCG,-0.0791
19,GCTAGTAA,-0.0158
20,ACTCCAGG,0.19
21,GAGTTCGC,0.0786
22,CAATCTAA,-0.0475
23,AGTGTATA,-0.0556
24,AGGTTCAC,-0.302
25,CGCGTGAG,0.115

row,Sequence,PBM E-score
1,AGCGAGCT,-0.144
2,AAACTACT,0.113
3,GACCGGTA,-0.0165
4,AATTCCGC,-0.24
5,AAAAGCAT,-0.188
6,GATTCAAC,0.385
7,GTGCGGAA,0.0343
8,ATGACCAC,0.193
9,GGACCATA,-0.109
10,CAGTCTGC,0.0403
11,GGGGCTTA,-0.206
12,AGGGACAC,-0.00854
13,ACTTCACG,0.015
14,ACTTTAGA,0.118
15,AAACACCG,-0.105
16,ACGATAGC,-0.117
17,AGCGACGC,-0.273
18,ACGCATTC,-0.0249
19,CACAGATA,-0.0649
20,CTTAATTC,0.0121
21,GGATCACC,-0.126
22,GACAGCGA,-0.0725
23,GGAATCCC,-0.166
24,ACCTATTG,-0.151
25,GTACGACA,0.0153

row,Sequence,PBM E-score
1,GGTTATTA,0.0159
2,ATCACCCA,0.135
3,AGCACCCG,-0.167
4,GCGGCTCC,-0.332
5,CGCTTAGC,-0.157
6,ACGAATAT,-0.203
7,CCGTGGCA,-0.141
8,AGGTAAAC,-0.0177
9,AGCTCTAT,-0.089
10,CATATCCG,-0.0624
11,GAATCCAC,0.0482
12,CGTGCAAG,-0.0837
13,CAACGTGC,-0.137
14,CTCCGTCC,-0.256
15,AGCACCAT,-0.322
16,ATATAGCG,-0.253
17,GTGGAAAC,-0.0987
18,ACAGGTCT,-0.0459
19,CATAAACA,0.00551
20,GAGTACAC,0.318
21,CTAGGTTA,0.0169
22,CGTTTAGC,0.0534
23,ATTAGCGG,-0.138
24,AAATTGAG,0.0433
25,ATAACCGC,0.0483

row,Sequence,PBM E-score
1,AACCCTTG,-0.178
2,ATCAGGCG,0.126
3,AATGCACA,-0.0113
4,CATCGGAA,-0.0521
5,AGCTAATA,0.135
6,CGAATGCC,-0.306
7,CCTCATCG,-0.207
8,GAGGTAGA,-0.141
9,ATGCCGCG,-0.22
10,CTTTAGTC,0.416
11,GCCAGTAC,-0.00912
12,CTTAAACA,0.268
13,CTAGGGGC,-0.216
14,CTAGACTA,0.17
15,GACTGGAC,0.138
16,ACTACTGG,0.177
17,ATCGAGGG,-0.268
18,CGCAACCC,-0.0826
19,CTGTCAGC,-0.18
20,ACAAATCC,-0.0439
21,CCGTAAGC,-0.145
22,AACACGGG,-0.204
23,GGGTCATA,0.125
24,GTGGTCGA,-0.157
25,AGATCCTA,-0.0884

row,Sequence,PBM E-score
1,CCTCGCCA,-0.303
2,GGCGGCTA,0.0443
3,AGACGCAC,-0.218
4,CCACGTGG,-0.261
5,TTCGAGAA,0.0366
6,ACCCACGC,0.114
7,CACCTTGA,-0.137
8,CCACGTGC,-0.111
9,GACTGGCC,0.127
10,AAGACTAC,0.413
11,GCATCAAA,0.1
12,CCCACTAC,-0.0519
13,ATAGACTA,0.316
14,ATCCAAGC,-0.146
15,AAGCAAGT,0.0544
16,CATCTACA,0.108
17,CCGAGTCG,0.261
18,AACCTGCG,-0.289
19,TAACGGCA,-0.0892
20,ACACTCAC,0.188
21,ACTCATGC,0.378
22,ACTCTTAA,0.241
23,CAGCCAAA,0.0544
24,CGCTTTCC,-0.249
25,AAGTGGTG,-0.155

row,Sequence,PBM E-score
1,AGTTTCTA,0.0581
2,GCCGAGAA,-0.121
3,CTTTCAGC,-0.134
4,AACCCCTT,-0.19
5,CGGCTATA,-0.00264
6,AGTGCGCC,-0.288
7,TCGATTAA,0.26
8,CTTACCTA,-0.165
9,GACTCGAC,0.391
10,CAAGCACC,-0.261
11,CTCCAAAA,0.0696
12,CATGGAGG,-0.124
13,ACCACACG,0.0547
14,GCCTGGTA,-0.135
15,CTAGCGCC,-0.0965
16,GGTCTAAC,0.0653
17,GCTGTTAC,-0.238
18,CACTACCA,-0.0175
19,AAGTGTGC,-0.218
20,AACCAACT,0.202
21,GTAGAGAC,0.0689
22,ACATAACC,-0.0712
